The campaign covered roughly 110,000 compounds. About 230 (0.21%) showed an effect of 50% or more. Some of the results follow.
What follows are compounds tested against DPAP1 (Plasmodium falciparum, UniProt Q8IIJ9) (assay: primary screen, percent inhibition; read by cleavage of a fluorogenic dipeptide substrate; higher = more effect of the substance).
Parameters: species or system P. falciparum D10 trophozoite lysates; single well
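Also: 30 min substrate incubation versus DMSO and 10 µM JCP410 controls.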

Sequence of DPAP1 (Q8IIJ9 whole entry, looked up): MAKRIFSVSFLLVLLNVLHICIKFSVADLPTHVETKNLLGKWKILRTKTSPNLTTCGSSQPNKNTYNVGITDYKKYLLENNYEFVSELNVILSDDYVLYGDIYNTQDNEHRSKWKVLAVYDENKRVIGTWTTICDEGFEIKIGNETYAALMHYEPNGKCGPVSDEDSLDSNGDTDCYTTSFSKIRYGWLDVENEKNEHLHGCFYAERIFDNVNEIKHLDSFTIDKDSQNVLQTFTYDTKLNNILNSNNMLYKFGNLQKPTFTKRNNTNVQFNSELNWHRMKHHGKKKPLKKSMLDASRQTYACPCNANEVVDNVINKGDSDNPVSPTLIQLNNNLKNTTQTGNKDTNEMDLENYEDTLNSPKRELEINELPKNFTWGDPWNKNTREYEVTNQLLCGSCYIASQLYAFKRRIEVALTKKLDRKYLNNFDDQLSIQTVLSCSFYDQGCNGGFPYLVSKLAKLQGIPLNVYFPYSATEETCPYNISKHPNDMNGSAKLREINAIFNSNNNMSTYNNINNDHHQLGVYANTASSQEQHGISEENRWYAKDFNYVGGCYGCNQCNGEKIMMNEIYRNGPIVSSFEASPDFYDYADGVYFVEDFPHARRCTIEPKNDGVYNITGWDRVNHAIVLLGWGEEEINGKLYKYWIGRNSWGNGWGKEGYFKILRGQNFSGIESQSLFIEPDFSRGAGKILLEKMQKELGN

Compound	% Inhibition @ 10 uM
CCCSC1=C(C#N)C(c2ccccc2)C(C(=O)Nc2ccccc2OC)=C(C)N1 (centres unmarked)	-4.67%
CCCN(CCO)Cc1ccc(Cl)c(Cl)c1	2.7%
C=CCNc1sc(S(C)(=O)=O)nc1S(=O)(=O)c1ccc(C)cc1	8.55%
COc1ccccc1N1CCN(S(=O)(=O)c2c(C(C)C)cc(C(C)C)cc2C(C)C)CC1	2.47%
Cc1oc(-c2ccccc2Cl)nc1CSc1nc(O)c2c(n1)CCC2	2.04%
COc1ccccc1OCCNC(=O)c1ccc(Br)cc1	-1.52%
CCc1nnc(NC(=O)C2Cc3ccc(C)cc3C(=O)O2)s1 (centres unmarked)	0.221%
COc1ccc2c(Sc3ccc(Cl)cc3)c(C(=O)N3CCOCC3)[nH]c2c1	-2.45%
c1nc(N2CCC3(CC2)OCCO3)c2nc[nH]c2n1	0.287%
C=CCc1cc(/C=C2/NC(=O)N(Cc3ccc(F)cc3)C2=O)cc(OC)c1O	-1.57%
Cc1ccc2[nH]c3c(c2c1)CCCC3C(N)=O (centres unmarked)	-3.14%
CCOC(=O)c1c(C)[nH]c(C)c1S(=O)(=O)N(C)CC(=O)N1CC=C(c2ccccc2)CC1	-8.46%
CN(CCCNC(=O)C1CCN(c2nnc(N3CCCC3=O)s2)CC1)C1CCCCC1	-6.58%
Clc1cccc(-c2nnn3c2nc(NCC2CCCO2)c2ccccc23)c1 (centres unmarked)	-6.52%
COc1ccc(CC(=O)Nc2ccccc2C(N)=O)cc1	-7%
CNC(=O)/C(C#N)=C/c1c(Oc2ccccc2OC)nc2c(C)cccn2c1=O	-9.06%
c1ccc(NCc2csc3ccccc23)cc1	-4.4%
CC(=O)Nc1ccc(NC(=O)c2sc3cccc(Cl)c3c2Cl)cc1	0.746%
O=C(NCc1ccccc1)C1CC(c2ccc(F)cc2)=NO1 (centres unmarked)	2.85%
CSC1=C(C#N)C2(CCCCC2)C(C(=O)Nc2ccccc2)=C(C)N1	3.9%
COC(=O)/C(=C/c1ccc(F)cc1)NC(=O)c1ccccc1	0.685%
Cn1c(S(C)(=O)=O)nc2ccccc21	-3.14%

Compound	% Inhibition @ 10 uM
CCN(CC)CCn1c2ccccc2n2cc(-c3ccc(-c4ccccc4)cc3)nc12	-0.436%
N#CC1=C(N)SC(N)=C(C#N)C1c1cccs1	40.6%
CCCCc1nc2ccccc2c(C(=O)O)c1C	-2.15%
COc1cc(C(=O)Nc2nc3ccc4ccccc4c3s2)cc(OC)c1OC	2.79%
Cc1cccc(NC(=O)c2cc3c(=O)n4cccc(C)c4nc3n2C)c1	0.214%
CCOC(=O)C1=CN(Cc2ccc(F)cc2)C=C(C(=O)OCC)C1c1cccc(OCC)c1	-5.05%
Cc1ccc(C(=O)CC2(O)C(=O)Nc3ccccc32)c(C)c1 (centres unmarked)	-2.03%
Cc1ccc2c(Cl)c(C(=O)NC3CC3)sc2c1	2.36%
COc1cc(/C=C/C(O)=C2\C(=O)Oc3ccccc3C2=O)cc(OC)c1OC	3.47%
C=Cc1ccc(Cn2c(C(=O)O)c(CNCc3cccc(OC)c3)c3ccc(C)cc32)cc1	9.35%
CCOc1ccccc1NC(=O)CSCc1ccc(Cl)cc1	2.15%
CC(C)CCNC(=O)c1nnc(-c2ccccc2)o1	-3.34%
Cc1cc(-c2ccc(C)c(S(=O)(=O)N3CCCCCC3)c2)on1	-1.16%
Cc1ccc(NC(=O)c2ccc3ccccc3c2)c(Br)c1	3.44%
O=C(NCc1ccc(-n2cccc2)cc1)c1cc2ccccc2oc1=O	1.32%
CCSc1nc2c(c(=O)n1-c1ccc(C)cc1)C1(CCCC1)Cc1ccccc1-2	-5.62%
CCOc1ccc(C2C(C(=O)c3ccc(C)cc3)=C(C(=O)OC)Nc3nnnn32)cc1 (centres unmarked)	-4.84%
COc1ccc2[nH]c3c(=O)n(CCCC(=O)NCc4ccccn4)c(=S)[nH]c3c2c1	-3.95%
Cc1oc2c(C)c3oc(=O)c(CCC(=O)N4CCOCC4)c(C)c3cc2c1C	-4.39%
COCCNC(=O)C1Sc2nnc(C)n2NC1c1ccc(OC)cc1 (centres unmarked)	-3.76%
Cc1ccc(S(=O)(=O)N2CCC(C(=O)Nc3nnc(C(C)C)s3)CC2)cc1	3.88%
COc1cc(C2C(C#N)=C(N)Oc3[nH]nc(C)c32)cc(Br)c1OCc1cccc(C)c1 (centres unmarked)	3.62%

Compound	% Inhibition @ 10 uM
CC(=O)N1C(O)CCN1c1ccccc1 (centres unmarked)	0.968%
O=C(c1ccc(CS(=O)c2ccccc2Cl)o1)N1CCN(C2CCCCC2)CC1 (centres unmarked)	3.1%
CCc1nc2cccnc2n1-c1ccc(C(=O)N2CCOCC2)cc1	1.48%
COc1cc(NC(=O)c2ccc(C)cc2)c(OC)cc1Cl	27.1%
CC(=O)c1ccc(OCCOc2ccc(C(C)=O)cc2)cc1	-6.82%
Oc1ncnc2nc3n(c12)CCCCC3	-2.42%
CC1(C)CC(=O)c2c(nn(-c3ccccc3)c2-c2ccncc2)C1	1.05%
Cc1cc(C)c2oc(-c3cccc(NC(=O)c4cccc5ccccc45)c3)nc2c1	2.99%
Cc1n[nH]c2c1C(c1c(C)nn(-c3ccccc3)c1C)C(C#N)=C(N)O2 (centres unmarked)	-7.27%
COc1cc(C2c3c(oc4ccc(C)cc4c3=O)C(=O)N2CCCN(C)C)ccc1OCCC(C)C (centres unmarked)	-4.78%
CC1Cc2ccccc2N1C(=O)c1nn(C)cc1Br (centres unmarked)	2.65%
CC(c1ccccc1)n1c(NCCCn2ccnc2)nc2c1c(=O)[nH]c(=O)n2C (centres unmarked)	-1.47%
CCN1CCC2(CC1)NC(=O)c1ccccc1O2	-1.6%
COc1ccc(CN2CC(C(=O)NCCc3ccc(C)cc3)CC2=O)cc1 (centres unmarked)	3.79%
CC(=O)NC1(C(F)(F)F)NC(=O)N(C)C1=O (centres unmarked)	-3.53%
Cc1ccccc1NC(=O)c1cccc(S(=O)(=O)Nc2cccc(C(=O)O)c2)c1	4.8%
CCCSc1nc(O)c(CC)c(=O)n1C(C)CC (centres unmarked)	-3.26%
O=C(COc1ccccc1)NC1CCCCC1	-10.6%
CC(=O)c1cccc(NC(=O)CCC2CCCC2)c1	-5.6%
COc1cc(CNCC2CCCO2)ccc1OCc1ccccc1Cl (centres unmarked)	0.324%
O=C(O)c1ccc(-c2nc3cc(Cl)ccc3[nH]2)cc1	3.93%
